# From PubChem BioAssay AID488969 (Vanderbilt High Throughput Screening Facility, 2010)
# Whole data set: some 110,000 compounds, median “z-score” near -0.1, cut for the highest 2% near 2. Some of the results follow. Active and inactive are the calls of the source.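 Rule for the calls: active = z-score in the third read window above 3 or below -3; inactive = the rest.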
# Target: Metabotropic glutamate receptor 8 (Rattus norvegicus) (UniProt P70579)
# Experiment: rat mGluR8 modulators via GIRK flux, primary screen, cell-based, thallium flux, HTS (AID 488969)
# Details: HEK293 rat mGluR8, GIRK (G protein-gated inwardly rectifying potassium channel) thallium flux, FluoZin2; at 10 µM; stronger effect = higher value; submaximal glutamate (EC20) added with thallium
# Chain of UniProt P70579 (P70579 whole entry, looked up): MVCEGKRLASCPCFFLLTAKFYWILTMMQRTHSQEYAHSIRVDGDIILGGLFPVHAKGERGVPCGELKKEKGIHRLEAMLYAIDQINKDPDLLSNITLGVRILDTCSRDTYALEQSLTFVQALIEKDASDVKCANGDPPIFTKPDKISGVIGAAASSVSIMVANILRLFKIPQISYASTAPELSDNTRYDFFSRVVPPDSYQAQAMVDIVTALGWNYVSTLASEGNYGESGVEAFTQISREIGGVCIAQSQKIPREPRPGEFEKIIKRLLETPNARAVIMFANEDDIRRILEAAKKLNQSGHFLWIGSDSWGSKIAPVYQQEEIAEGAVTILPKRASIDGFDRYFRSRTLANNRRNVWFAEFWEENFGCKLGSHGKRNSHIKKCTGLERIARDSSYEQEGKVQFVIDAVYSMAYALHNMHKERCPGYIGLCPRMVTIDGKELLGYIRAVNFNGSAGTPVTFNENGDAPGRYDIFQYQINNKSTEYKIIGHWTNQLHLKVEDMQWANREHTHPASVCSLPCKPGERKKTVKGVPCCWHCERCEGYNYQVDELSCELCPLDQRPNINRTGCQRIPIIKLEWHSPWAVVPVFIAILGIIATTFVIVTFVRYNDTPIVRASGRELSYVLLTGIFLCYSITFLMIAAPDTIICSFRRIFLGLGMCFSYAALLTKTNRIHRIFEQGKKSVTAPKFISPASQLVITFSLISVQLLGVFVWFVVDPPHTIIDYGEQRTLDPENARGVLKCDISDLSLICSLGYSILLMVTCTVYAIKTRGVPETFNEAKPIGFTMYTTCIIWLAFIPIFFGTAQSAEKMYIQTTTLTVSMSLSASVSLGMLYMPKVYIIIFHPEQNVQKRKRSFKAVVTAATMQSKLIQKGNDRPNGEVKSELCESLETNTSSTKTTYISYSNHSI
row,SMILES,z-score
1,CCCCn1nnnc1SCC(=O)Nc1cccc(C)n1,-0.0907
2,Cc1ccc(-n2cc(-c3ccc([N+](=O)[O-])cc3)[nH]c2=S)c(C)c1,2.99
3,CC(=O)SC(C[N+](=O)[O-])c1cn(C(C)=O)c2ccccc12 (stereo not given),-0.232
4,CCOC(=O)c1sc(N)c(C#N)c1CSc1nc2ccc(C)cc2[nH]1,0.187
5,CC(C)(C)c1cc(C(F)(F)F)nc(SCCCNC(=O)c2ccco2)n1,-0.564
6,O=C(Nc1nc2ccc(SC(F)F)cc2s1)c1ccc(NS(=O)(=O)c2ccc(F)c(F)c2)cc1,-1.29
7,Cc1cc(C)cc(NC(=O)CSc2nnc(CNC(=O)c3cccs3)o2)c1,-0.296
8,O=C(Cn1nnc2ccccc21)c1ccccc1,0.105
9,CCOc1ccccc1NC(=O)c1cc(Cl)ccc1NC(=O)c1ccco1,-0.11
10,CNC(=O)c1ccccc1NC(=O)c1c(O)c2c([nH]c1=O)CCCC2,0.0703
11,CCCN1C(=O)c2ccc(C(=O)NC3CCCCC3)cc2C1=O,-0.0494
12,CSc1cc(-c2ccc(Cl)cc2)n(Cc2ccccc2)c(=O)c1C#N,-0.0166
13,O=C(c1ccco1)N1CCN(C(=O)C(Sc2ccccc2)c2ccccc2)CC1 (stereo not given),-0.779
14,COc1ccc(C(=O)Nc2cc(C(=O)c3ccccc3)c(C)oc2=O)cc1,0.0879
15,Cc1nc2ccc(NS(=O)(=O)c3ccc(C)c(C)c3)cc2s1,-0.187
16,Cc1ccc(-c2nnc(N(C)C(=O)C3CCCO3)s2)cn1 (stereo not given),-0.404
17,CCCCC(C(=O)NC1CCCC1)N(Cc1ccco1)C(=O)Cn1nnc(-c2ccc(F)cc2)n1 (stereo not given),-0.0656
18,O=C(CNC(=O)c1ccco1)NCC(=O)OCc1ccc(Cl)cc1,0.054
19,COc1ccc(C2CC(=O)c3cnc(N)nc3C2)c(OC)c1 (stereo not given),-0.296
20,COC(=O)c1cccc(NC(=O)COC(=O)CSc2nc(C)cc(C)n2)c1,-0.0777
21,O=C(Cn1cc2c(n1)CCCC2)NCCCN1CCCC1,0.0617
22,COc1ccc(S(=O)(=O)C(C#N)c2nc3ccccc3nc2N2CCCC(C)C2)cc1 (stereo not given),-0.767
23,CCOc1cc(/C=C\[N+](=O)[O-])ccc1OCC(=O)Nc1ccccc1C,-0.78
24,CC(C)OC(=O)CSc1nnc(-c2ccncc2)n1N,-0.188

row,SMILES,z-score
1,Cc1cc(=O)oc2ccc(OC(C)C(=O)O)cc12 (stereo not given),0.0783
2,CCC(C)C(NC(C)=O)C(=O)NC(=O)NC(c1ccccc1)c1ccccc1 (stereo not given),-1.02
3,CCc1c(O)nc(SCC(N)=O)n(-c2ccccc2F)c1=O,1.42
4,O=C(CCc1ccc(O)c(O)c1)NNC(=S)NCCc1ccccc1,-0.211
5,CS(=O)(=O)c1ccc(C(=O)NC2CCCCC2)cc1,0.0254
6,Cc1ccc(/C=C/c2ccc(=O)n(Cc3ccc(Cl)cc3Cl)n2)cc1,-0.304
7,CCN1CCCC1CNC(=O)c1cn(C)c2ccc(S(=O)(=O)N3CCCCCC3)cc2c1=O (stereo not given),1.29
8,O=C(NC1CCCCC1)C(c1cccs1)N(C(=O)c1ccccn1)c1ccccc1 (stereo not given),-0.11
9,Cc1ccc(CN(C)CCc2ccccn2)cc1,0.541
10,CC(=O)Nc1cccc(N2C(=O)CC(N3CCC(C(=O)N4CCCCC4)CC3)C2=O)c1 (stereo not given),-0.567
11,CCOC(=O)C1=NN(N=O)C2(CC(=O)N(c3cc(C)cc(C)c3)C2=O)C1 (stereo not given),-0.893
12,CO/N=C(/CS(=O)Cc1ccccc1Cl)c1ccc(Cl)cc1Cl (stereo not given),-0.933
13,CCN(c1cccc(C)c1)S(=O)(=O)c1cccc(C(=O)O)c1,-1.32
14,Cc1cccc(C(=O)N/N=C/c2ccc[nH]2)c1,-0.21
15,COc1cc([N+](=O)[O-])ccc1NC(=O)CSc1nc2ccccc2n1-c1ccccc1,0.182
16,O=C(O)CCCN1C(=O)C2C3CCC(O3)C2C1=O (stereo not given),-0.35
17,O=C1CCC(C(=O)OC(C(=O)c2c[nH]c3ccccc23)c2ccccc2)=NN1 (stereo not given),-0.136
18,Cc1ccc(-c2nc3ncccc3o2)cc1NC(=O)c1ccco1,-0.0446
19,Cc1ccc(C)c(C(=O)NC2CC(C)(C)NC(C)(C)C2)c1,-0.211
20,CCN=C1SC(C(N)=O)CC(=O)N1CC (stereo not given),0.556
21,Cc1cc(NC(=O)COc2nnc(-c3ccccc3)c3ccccc23)no1,-0.0657
22,O=C(NC(=S)N1CCN(c2ccc(C(F)(F)F)cc2[N+](=O)[O-])CC1)c1cccs1,active: 8.9
23,CCOC(=O)C(NC(=O)CC)(N1CCc2ccccc2C1)C(F)(F)F (stereo not given),-0.138
24,O=C(O)c1ccc(-c2nc(-c3ccccc3)c(-c3ccccc3)[nH]2)cc1,-1.56

row,SMILES,z-score
1,CCn1c2ccccc2c2nnc(SCCCn3c(=O)[nH]c4ccccc43)nc21,-0.382
2,Cc1cccn2c(=O)c3cc(C(=O)NCc4ccco4)c(=N)n(CCOCCO)c3nc12,1.43
3,COc1ccc(NC(=O)c2sc3cc(C(F)(F)F)cnc3c2-c2cccs2)cc1,0.0731
4,CN(C)S(=O)(=O)c1ccc(Cl)c(C(=O)Nc2ccccc2[N+](=O)[O-])c1,-0.21
5,CC(C)CC(OC(=O)c1ccco1)C(=O)NC1CCCCC1 (stereo not given),-0.873
6,Cc1cccc(NC(=O)Cc2ccc(F)cc2)c1,1.28
7,Cc1ccc(-c2cc(C(=O)N/N=C/C=C/c3ccco3)c3ccccc3n2)cc1C,2.64
8,COc1ccc(C2C(C(C)=O)=C(C)Nc3ncnn32)cc1OC (stereo not given),0.388
9,CN(C(=O)CSc1nc(-c2ccc(F)cc2)cs1)C1CCS(=O)(=O)C1 (stereo not given),-0.115
10,Cc1ccc(C(=O)c2oc3ccccc3c2NC(=O)c2cc(-c3ccccc3O)n[nH]2)cc1,0.291
11,O=C1OC(c2ccccc2)=C/C1=C/N1CCOCC1,-0.0331
12,CCOC(=O)C1CCCN(C2CC(=O)N(c3ccc(C)cc3)C2=O)C1 (stereo not given),0.314
13,Cc1ccc(/C=N\Nc2nc3ccc(Cl)cc3[nH]2)o1,-0.417
14,Cc1ccccc1/C=N\NC(=O)c1csnn1,-0.102
15,O=C(NCCCN1CCCCCC1)c1ccc2c(c1)NC(=O)C(N1CCOCC1)S2 (stereo not given),0.756
16,C=C(C)COc1ccc2c(CC)cc(=O)oc2c1C,-0.246
17,O=C(NCC(c1ccc(F)cc1)N1CCOCC1)c1ccc(Br)o1 (stereo not given),0.0617
18,Cc1c(C(=O)C(=O)N2CCCc3ccccc32)c2ccccc2n1C,-0.375
19,COc1ccc(NCc2nnc(SCC(=O)Nc3nc(-c4ccccc4)cs3)n2-c2ccccc2)cc1,-0.141
20,CCN1C(=O)CS/C1=N\c1nccs1,-0.579
21,COc1cccc(-n2c(SC3CCOC3=O)nc3ccccc3c2=O)c1 (stereo not given),-0.583
22,CCCCS(=O)Cc1ccccc1 (stereo not given),-0.148
